Measured values reported in the supplement of paper PMC4967469.
IC50 is the fitted dose that halves viability relative to control wells, and lower means more sensitive; fits outside the tested doses are given as limits. For AUC the same curve is integrated over the 256-fold range of doses and scaled to a fraction; the more sensitive the line, the further below 1. For some assays here: Where the top dose is marked as inferred, it is not printed in the source and was worked back from the curve model.

Experiments:
Experiment in all cases: Viability of human cancer cell lines after 72 h of drug (GDSC screen)
[1] = compound: CCC(=O)N1CCN(c2ccc(-n3c(=O)ccc4cnc5ccc(-c6cnc7ccccc7c6)cc5c43)cc2C(F)(F)F)CC1 [JW-7-52-1]; conditions: top dose 1.2 µM; top dose inferred
Protocol: (§1)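 Human cancer cell lines in 384-well plates, medium with 10% serum, drug for 72 h over a 256-fold dose range (nine 2-fold or five 4-fold steps up to the top dose). Adherent lines were fixed and stained with the nucleic acid dye Syto60, suspension lines read with resazurin; signal relative to control wells, capped at 0 and 100%. One two-parameter sigmoid per drug and line, fitted in a mixed model over all curves with the slope shared within a line.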

[2] = compound: COc1cc2c(Oc3ccc(NC(=O)C4(C(=O)Nc5ccc(F)cc5)CC4)cc3F)ccnc2cc1OCCCN1CCOCC1 [XL-880]; conditions: top dose 5.12 µM; top dose inferred
Protocol: as §1

[3] = compound: Oc1ccc2ccccc2c1SSc1c(O)ccc2ccccc12 [IPA-3]; conditions: top dose 32 µM; top dose inferred
Protocol: as §1

[4] = compound: CN(C)C/C=C/C(=O)Nc1ccc(C(=O)Nc2cccc(Nc3nccc(-c4cccnc4)n3)c2)cc1 [ZG-10]; conditions: top dose 10 µM; top dose inferred
Protocol: as §1

[5] = compound: O=C(NOCC1CC1)c1ccc(F)c(F)c1Nc1ccc(I)cc1Cl [CI-1040]; conditions: top dose 10 µM; top dose inferred
Protocol: as §1

[6] = compound: Cn1nnc2c(C(N)=O)ncn2c1=O [Temozolomide]; conditions: top dose 30 µM
Protocol: as §1

[7] = compound: CCCC[C@@H](C=O)NC(=O)[C@H](CC(C)C)NC(=O)[C@H](CC(C)C)NC(=O)OCc1ccccc1 [Z-LLNle-CHO]; conditions: top dose 2.56 µM; top dose inferred
Protocol: as §1

[8] = compound: CO[C@H]1C[C@@H]2CC[C@@H](C)[C@@](O)(O2)C(=O)C(=O)N2CCCC[C@H]2C(=O)O[C@H]([C@H](C)C[C@@H]2CC[C@@H](O)[C@H](OC)C2)CC(=O)[C@H](C)/C=C(\C)[C@@H](O)[C@@H](OC)C(=O)[C@H](C)C[C@H](C)/C=C/C=C/C=C/1C [Rapamycin]; conditions: top dose 0.1 µM; top dose inferred
Protocol: as §1

[9] = compound: CN1CCc2c(c3ccccc3n2Cc2ccc(C(=O)NO)cc2)C1 [Tubastatin A]; conditions: top dose 20 µM
Protocol: as §1

Cell Line	AUC [1]	IC50 [1]	AUC [2]	IC50 [2]	AUC [3]	IC50 [3]	AUC [4]	IC50 [4]	AUC [5]	IC50 [5]	AUC [6]	IC50 [6]	AUC [7]	IC50 [7]	AUC [8]	IC50 [8]	AUC [9]	IC50 [9]
RPMI-8402 (T-cell lymphoblastic leukaemia, suspension)	0.522	0.0853 µM	0.538	0.399 µM	0.646	4.72 µM	0.635	1.38 µM	0.974	> 10 µM	0.981	> 30 µM	0.797	0.991 µM	0.668	0.0168 µM	0.762	6.1 µM
NB1 (neuroblastoma, semi-adherent)	0.666	0.229 µM	0.663	0.958 µM	0.865	> 32 µM	0.561	0.933 µM	0.906	> 10 µM	0.982	> 30 µM	0.819	1.65 µM	0.782	0.0464 µM	0.955	> 20 µM
SF268 (glioma, adherent)	0.546	0.101 µM	0.636	0.785 µM	0.866	> 32 µM	0.712	2.61 µM	0.905	> 10 µM	0.96	> 30 µM	0.783	1.17 µM	0.899	> 0.1 µM	0.915	> 20 µM
NCI-H82 (small cell lung carcinoma, suspension)	0.586	0.127 µM	0.781	2.01 µM	0.984	> 32 µM	0.687	2.02 µM	0.954	> 10 µM	0.987	> 30 µM	0.865	2.07 µM	0.978	> 0.1 µM	0.955	> 20 µM
EKVX (lung adenocarcinoma, adherent)	0.669	0.383 µM	0.85	> 5.12 µM	0.9	> 32 µM	0.712	5.08 µM	0.816	> 10 µM	0.949	> 30 µM	0.944	> 2.56 µM	0.728	0.0608 µM	0.967	> 20 µM
MN-60 (B-cell leukaemia, suspension)	0.792	0.568 µM	0.805	2.7 µM	0.907	> 32 µM	0.757	3.57 µM	0.98	> 10 µM	0.979	> 30 µM	0.959	> 2.56 µM	0.814	0.0574 µM	0.905	> 20 µM
TE-9 (oesophagus, adherent)	0.704	–	0.875	> 5.12 µM	0.817	18.8 µM	0.787	4.52 µM	0.953	> 10 µM	0.979	> 30 µM	0.795	1.24 µM	0.978	> 0.1 µM	0.983	> 20 µM
AMO-1 (haematopoietic neoplasm, suspension)	0.625	0.157 µM	0.66	0.828 µM	0.758	9.7 µM	0.65	1.52 µM	0.91	> 10 µM	0.981	> 30 µM	0.69	0.499 µM	0.904	> 0.1 µM	0.899	19.1 µM
LB831-BLC (bladder, adherent)	0.634	0.177 µM	0.658	0.888 µM	0.856	26.3 µM	0.855	8.14 µM	0.917	> 10 µM	0.986	> 30 µM	0.716	0.661 µM	0.987	> 0.1 µM	0.978	> 20 µM
SR (lymphoid neoplasm, suspension)	0.498	0.0743 µM	0.402	0.177 µM	0.645	4.81 µM	0.552	0.852 µM	0.952	> 10 µM	0.734	8 µM	0.651	0.4 µM	0.547	0.00828 µM	0.738	5.49 µM
Mo-T (hairy cell leukaemia, suspension)	0.982	> 1.2 µM	0.848	3.93 µM	0.774	12.8 µM	0.845	7.46 µM	0.775	4.05 µM	0.939	> 30 µM	0.823	1.55 µM	0.988	> 0.1 µM	0.927	> 20 µM
NCI-H345 (small cell lung carcinoma, suspension)	0.863	1.12 µM	0.948	> 5.12 µM	0.972	> 32 µM	0.879	> 10 µM	0.969	> 10 µM	0.976	> 30 µM	0.937	> 2.56 µM	0.98	> 0.1 µM	0.969	> 20 µM
NCI-H2141 (small cell lung carcinoma, suspension)	0.823	0.68 µM	0.729	1.41 µM	0.988	> 32 µM	0.678	1.93 µM	0.979	> 10 µM	0.99	> 30 µM	0.85	1.85 µM	0.969	> 0.1 µM	0.985	> 20 µM
NB-4 (acute myeloid leukaemia, suspension)	0.697	0.238 µM	0.523	0.365 µM	0.717	7.17 µM	0.413	0.379 µM	0.256	0.147 µM	0.978	> 30 µM	0.991	> 2.56 µM	0.989	> 0.1 µM	0.623	2.54 µM
NB10 (neuroblastoma, adherent)	0.893	> 1.2 µM	0.518	0.357 µM	0.816	17.1 µM	0.855	7.64 µM	0.764	3.55 µM	0.966	> 30 µM	0.963	> 2.56 µM	0.966	> 0.1 µM	0.988	> 20 µM
OVCAR-4 (ovary, adherent)	0.371	0.0277 µM	0.67	1.21 µM	0.836	> 32 µM	0.76	5.26 µM	0.813	9.16 µM	0.973	> 30 µM	0.768	1.45 µM	0.67	0.0236 µM	0.908	> 20 µM
K5 (thyroid, adherent)	0.465	0.0603 µM	0.695	1.1 µM	0.988	> 32 µM	0.797	4.5 µM	0.426	0.396 µM	0.932	> 30 µM	0.894	> 2.56 µM	0.769	0.0361 µM	0.969	> 20 µM
SLVL (B-cell lymphoma, suspension)	0.472	0.0627 µM	0.595	0.592 µM	0.804	17.2 µM	0.62	1.36 µM	0.883	> 10 µM	0.937	> 30 µM	0.791	1.23 µM	0.649	0.0166 µM	0.875	> 20 µM
NB14 (neuroblastoma, adherent)	0.986	> 1.2 µM	0.391	0.164 µM	0.529	2.39 µM	0.594	1.11 µM	0.877	9 µM	0.988	> 30 µM	0.961	> 2.56 µM	0.927	> 0.1 µM	0.986	> 20 µM
LS-1034 (large intestine, adherent)	0.7	0.293 µM	0.654	0.899 µM	0.967	> 32 µM	0.939	> 10 µM	0.863	> 10 µM	0.985	> 30 µM	0.917	> 2.56 µM	0.874	> 0.1 µM	0.928	> 20 µM
ONS-76 (medulloblastoma, adherent)	0.601	0.145 µM	0.796	2.61 µM	0.984	> 32 µM	0.629	1.47 µM	0.614	1.32 µM	0.983	> 30 µM	0.751	0.902 µM	0.951	> 0.1 µM	0.858	18.5 µM
COLO-668 (small cell lung carcinoma, adherent)	0.688	0.252 µM	0.613	0.652 µM	0.963	> 32 µM	0.84	6.89 µM	0.971	> 10 µM	0.986	> 30 µM	0.979	> 2.56 µM	0.876	0.0992 µM	0.955	> 20 µM
DMS-114 (small cell lung carcinoma, adherent)	0.712	0.329 µM	0.63	0.772 µM	0.972	> 32 µM	0.736	3.31 µM	0.921	> 10 µM	0.979	> 30 µM	0.968	> 2.56 µM	0.743	0.035 µM	0.983	> 20 µM
HCC2218 (breast, suspension)	0.677	0.268 µM	0.862	> 5.12 µM	0.952	> 32 µM	0.743	3.8 µM	0.977	> 10 µM	0.982	> 30 µM	0.867	> 2.56 µM	0.957	> 0.1 µM	0.922	> 20 µM
OCI-AML5 (acute myeloid leukaemia, suspension)	0.726	0.308 µM	0.253	0.0676 µM	0.906	> 32 µM	0.63	1.38 µM	0.745	2.91 µM	0.978	> 30 µM	0.821	1.32 µM	0.935	> 0.1 µM	0.783	7.65 µM
OCUB-M (breast, adherent)	0.147	0.00752 µM	0.745	1.43 µM	0.838	17.5 µM	0.689	1.94 µM	0.952	> 10 µM	0.989	> 30 µM	0.685	0.487 µM	0.04	< 0.000391 µM	0.927	> 20 µM
NCI-H716 (large intestine, suspension)	0.969	> 1.2 µM	0.463	0.247 µM	0.976	> 32 µM	0.751	4.06 µM	0.365	0.241 µM	0.971	> 30 µM	0.961	> 2.56 µM	0.924	> 0.1 µM	0.942	> 20 µM
NCI-H524 (small cell lung carcinoma, suspension)	0.777	0.431 µM	0.761	1.64 µM	0.987	> 32 µM	0.646	1.51 µM	0.967	> 10 µM	0.979	> 30 µM	0.921	> 2.56 µM	0.92	> 0.1 µM	0.988	> 20 µM
